Measured values as given in a collection of fitness landscapes (doi:10.1126/science.1257360).
Some of the results follow.

B1: PhoQ; a variant is named by its letters at X, in order, P23837 (parent)
chain: MKKLLRLFFPLSLRVRFLLATAAVVLVLSLAYGMVALIGYSVSFDKTTFRLLRGESNLFYTLAKWENNKLHVELPENIDKQSPTMTLIYDENGQLLWAQRDVPWLMKMIQPDWLKSNGFHEIEADVNDTSLLLSGDHSIQQQLQEVREDDDDAEMTHSVAVNVYPATSRMPKLTIVVVDTIPVELKSSYMVWSWFIYVLSANLLLVIPLLWVAAWWSLRPIEALAKEVRELEEHNRELLNPATTRELTSLVRNLNRLLKSERERYDKYRTTLTDLTHSLKTPLXXLQXXLRSLRSEKMSVSDAEPVMLEQISRISQQIGYYLHRASMRGGTLLSRELHPVAPLLDNLTSALNKVYQRKGVNISLDISPEISFVGEQNDFVEVMGNVLDNACKYCLEFVEISARQTDEHLYIVVEDDGPGIPLSKREVIFDRGQRVDTLRPGQGVGLAVAREITEQYEGKIVAGESMLGGARMEVIFGRQHSAPKDE

Variants of: B1
Assay: enrichment ratio after two sorts for PhoP signalling (ratio (wild type AVST 3.29)); higher = more functional
Settings: with PhoP (E. coli)

Variant | enrichment ratio
PVNM | ≤ 0.25
TASW | ≤ 0.25
AEYS | 1.65
MMPA | ≤ 0.25
RGMY | ≤ 0.25
MMPM | ≤ 0.25
APKR | ≤ 0.25
HQYT | ≤ 0.25
EAFN | ≤ 0.25
VGNV | ≤ 0.25
ADIC | 4.63
FWEE | ≤ 0.25
RNQE | ≤ 0.25
TSEM | 9.83
QEAQ | ≤ 0.25
HAVN | ≤ 0.25
SNPM | 0.306
WTWM | ≤ 0.25
QSFF | 1.05
APLP | ≤ 0.25
IDYG | ≤ 0.25
IHGK | ≤ 0.25
FMFD | ≤ 0.25
QGFY | 4.24

Variant | enrichment ratio
TVIS | ≤ 0.25
YIFT | ≤ 0.25
FGRN | ≤ 0.25
TGSS | 11
DTYY | ≤ 0.25
ESYI | ≤ 0.25
SKGK | ≤ 0.25
RKWD | ≤ 0.25
LPTC | ≤ 0.25
FGGT | ≤ 0.25
CSLY | 0.296
LRCC | ≤ 0.25
RAHI | ≤ 0.25
FKKA | ≤ 0.25
VNWY | ≤ 0.25
MDRK | ≤ 0.25
SWES | ≤ 0.25
YDQL | ≤ 0.25
WSWV | ≤ 0.25
INLY | ≤ 0.25
ERIY | ≤ 0.25
DPIN | ≤ 0.25
FYNV | ≤ 0.25
ASPH | ≤ 0.25

Variant | enrichment ratio
AEGP | ≤ 0.25
TKHL | 1.82
WGST | ≤ 0.25
TFRP | ≤ 0.25
VLIY | ≤ 0.25
FHHH | ≤ 0.25
FCAL | ≤ 0.25
SLDS | ≤ 0.25
NKPA | ≤ 0.25
YHVS | ≤ 0.25
DHIM | ≤ 0.25
LWNT | ≤ 0.25
TPED | ≤ 0.25
TEEP | ≤ 0.25
LARP | ≤ 0.25
PRYI | ≤ 0.25
SWKR | ≤ 0.25
HKPF | ≤ 0.25
VTIS | ≤ 0.25
VWGQ | ≤ 0.25
HPYN | ≤ 0.25
QPDI | ≤ 0.25
EELA | ≤ 0.25
WDAF | ≤ 0.25

Variant | enrichment ratio
MPGR | ≤ 0.25
WQAN | ≤ 0.25
PTFE | ≤ 0.25
SWSK | ≤ 0.25
PAPK | ≤ 0.25
HDDP | ≤ 0.25
MFNG | ≤ 0.25
QGNN | ≤ 0.25
TKWG | ≤ 0.25
MFCS | ≤ 0.25
LGHR | ≤ 0.25
MPRT | ≤ 0.25
TKLM | 21.3
SKMA | 3.27
HDMC | ≤ 0.25
YMQV | ≤ 0.25
SLTK | 0.362
NNSD | ≤ 0.25
IIPS | ≤ 0.25
HRKH | ≤ 0.25
DIVS | ≤ 0.25
TLKL | ≤ 0.25
FIWP | ≤ 0.25
IVAS | ≤ 0.25

Variant | enrichment ratio
QAAW | ≤ 0.25
ASEL | 3.67
PMMN | ≤ 0.25
EDTV | ≤ 0.25
DDLG | ≤ 0.25
PLDL | ≤ 0.25
PWMY | ≤ 0.25
VGWC | ≤ 0.25
PFEE | ≤ 0.25
SMCI | 14.3
TNKI | ≤ 0.25
CFPY | ≤ 0.25
WQSY | ≤ 0.25
IACD | ≤ 0.25
SFFM | ≤ 0.25
SHWT | ≤ 0.25
TGMC | 31.9
HITL | 1.13
WFNP | ≤ 0.25
GYRD | ≤ 0.25
LSQV | ≤ 0.25
IRWY | ≤ 0.25
FETT | ≤ 0.25
WWDL | ≤ 0.25

Variant | enrichment ratio
RRNI | ≤ 0.25
FKEQ | ≤ 0.25
WYVI | ≤ 0.25
DRLR | ≤ 0.25
FEDG | ≤ 0.25
IGHV | ≤ 0.25
RVMG | ≤ 0.25
MHEV | ≤ 0.25
FSAK | ≤ 0.25
VEVT | 5
EVDS | ≤ 0.25
LISA | ≤ 0.25
FDQS | ≤ 0.25
DQKP | ≤ 0.25
WEVK | ≤ 0.25
IWVY | ≤ 0.25
IDYT | ≤ 0.25
LPPQ | ≤ 0.25
IYAD | ≤ 0.25
PHGR | ≤ 0.25
TNVF | ≤ 0.25
PDCI | ≤ 0.25
AKPQ | ≤ 0.25
TDRP | ≤ 0.25

Variant | enrichment ratio
YYER | ≤ 0.25
FHMS | ≤ 0.25
LSFI | 6.55
AFSG | 5.71
LRDD | ≤ 0.25
ANAS | 10.7
QRIN | ≤ 0.25
HYPA | ≤ 0.25
LCWI | ≤ 0.25
ITQP | ≤ 0.25
QANH | ≤ 0.25
GITS | 5.92
HDGF | ≤ 0.25
IKNW | ≤ 0.25
YKVL | ≤ 0.25
QDIV | ≤ 0.25
VTCL | 5.34
NSIH | ≤ 0.25
RVLI | 0.745
NMLC | ≤ 0.25
ALFR | ≤ 0.25
WPFQ | ≤ 0.25
WMIR | ≤ 0.25
MDYN | ≤ 0.25

Variant | enrichment ratio
YGPW | ≤ 0.25
FSWS | ≤ 0.25
DAVP | ≤ 0.25
YTLA | 4.01
DNFV | ≤ 0.25
IFRP | ≤ 0.25
LRWW | ≤ 0.25
FVAF | ≤ 0.25
SPCF | ≤ 0.25
SWRM | ≤ 0.25
TCKY | ≤ 0.25
FMCS | ≤ 0.25
AVGR | ≤ 0.25
PHTE | ≤ 0.25
IIIG | ≤ 0.25
NPCE | ≤ 0.25
AKTN | ≤ 0.25
AQNY | 0.444
MGRM | ≤ 0.25
SMFQ | ≤ 0.25
SWMM | ≤ 0.25
DPME | ≤ 0.25
QGQV | ≤ 0.25
FGIW | ≤ 0.25

Variant | enrichment ratio
TPNS | ≤ 0.25
VGMF | ≤ 0.25
FWTE | ≤ 0.25
RFIN | ≤ 0.25
RLSE | ≤ 0.25
ADHS | ≤ 0.25
LVSD | ≤ 0.25
FVCS | ≤ 0.25
WTVY | ≤ 0.25
EEVW | ≤ 0.25
ITEY | ≤ 0.25
FSVD | ≤ 0.25
TGGS | 9.2
WMGS | ≤ 0.25
YFRQ | 0.298
GESH | 8.14
QVQW | ≤ 0.25
MDQY | ≤ 0.25
FPGP | ≤ 0.25
YKEY | ≤ 0.25
ESVM | ≤ 0.25
VDVW | ≤ 0.25
QDRG | ≤ 0.25
YECS | 14.8

Variant | enrichment ratio
SQNK | ≤ 0.25
ASKL | ≤ 0.25
YLKP | ≤ 0.25
GRVG | ≤ 0.25
FMEG | ≤ 0.25
KACH | ≤ 0.25
WSMV | ≤ 0.25
GSRM | ≤ 0.25
YGEF | ≤ 0.25
NANK | ≤ 0.25
GFGI | ≤ 0.25
QPVP | ≤ 0.25
QMNK | ≤ 0.25
MWGM | ≤ 0.25
IALL | 8.58
NQWM | ≤ 0.25
WLSE | ≤ 0.25
QNKG | ≤ 0.25
AYIW | ≤ 0.25
AAKC | ≤ 0.25
KPMW | ≤ 0.25
GDPL | ≤ 0.25
ILYP | ≤ 0.25
GMLV | 2.73

Variant | enrichment ratio
DLRH | ≤ 0.25
AKKC | ≤ 0.25
SYFL | ≤ 0.25
THAP | ≤ 0.25
TMSH | 3.82
DAGH | ≤ 0.25
PEPH | ≤ 0.25
VWTM | ≤ 0.25
TVEW | ≤ 0.25
IQGP | ≤ 0.25
PIAP | ≤ 0.25
NRLV | ≤ 0.25
WGDA | ≤ 0.25
LHKG | ≤ 0.25
WPPL | ≤ 0.25
YNMM | 6.38
PNGR | ≤ 0.25
YWIW | ≤ 0.25
MQLY | 9.31
EIAS | ≤ 0.25
LQAV | ≤ 0.25
VFPS | ≤ 0.25
VAAL | 0.814
QPHC | ≤ 0.25

Variant | enrichment ratio
HHVT | ≤ 0.25
YPCT | ≤ 0.25
HTDG | ≤ 0.25
SWMN | ≤ 0.25
IDVW | ≤ 0.25
DREP | ≤ 0.25
KELR | ≤ 0.25
DVEC | ≤ 0.25
NLIP | ≤ 0.25
IYDI | ≤ 0.25
PQLN | ≤ 0.25
HGKP | ≤ 0.25
SQVV | 8.77
MATQ | ≤ 0.25
YEHN | ≤ 0.25
QIHA | ≤ 0.25
ISLD | ≤ 0.25
YLGF | ≤ 0.25
NHDI | ≤ 0.25
QFMK | ≤ 0.25
VQHL | 0.767
VFIK | ≤ 0.25
QACP | ≤ 0.25
TTLR | 3.8

Variant | enrichment ratio
HYQC | ≤ 0.25
WSVR | ≤ 0.25
RMGY | ≤ 0.25
THQE | ≤ 0.25
DDVS | ≤ 0.25
NVYH | ≤ 0.25
FTKI | ≤ 0.25
EYGP | ≤ 0.25
FDNY | ≤ 0.25
VLPG | ≤ 0.25
AMDM | ≤ 0.25
WDMA | ≤ 0.25
NSLH | ≤ 0.25
GHQM | ≤ 0.25
DIGC | ≤ 0.25
EIAT | ≤ 0.25
LEQW | ≤ 0.25
RPFC | ≤ 0.25
